# Laboratory results: the supplement of paper PMC3334620
# The full ranking holds about 33,000 sequences; the median of “E-score (-0.5 to 0.5)” is about -0.012, and the highest 2% start at about 0.29. This is one part of the list.
# Molecular target: T1, Ybr033w (UniProt P38073)
# T1 sequence: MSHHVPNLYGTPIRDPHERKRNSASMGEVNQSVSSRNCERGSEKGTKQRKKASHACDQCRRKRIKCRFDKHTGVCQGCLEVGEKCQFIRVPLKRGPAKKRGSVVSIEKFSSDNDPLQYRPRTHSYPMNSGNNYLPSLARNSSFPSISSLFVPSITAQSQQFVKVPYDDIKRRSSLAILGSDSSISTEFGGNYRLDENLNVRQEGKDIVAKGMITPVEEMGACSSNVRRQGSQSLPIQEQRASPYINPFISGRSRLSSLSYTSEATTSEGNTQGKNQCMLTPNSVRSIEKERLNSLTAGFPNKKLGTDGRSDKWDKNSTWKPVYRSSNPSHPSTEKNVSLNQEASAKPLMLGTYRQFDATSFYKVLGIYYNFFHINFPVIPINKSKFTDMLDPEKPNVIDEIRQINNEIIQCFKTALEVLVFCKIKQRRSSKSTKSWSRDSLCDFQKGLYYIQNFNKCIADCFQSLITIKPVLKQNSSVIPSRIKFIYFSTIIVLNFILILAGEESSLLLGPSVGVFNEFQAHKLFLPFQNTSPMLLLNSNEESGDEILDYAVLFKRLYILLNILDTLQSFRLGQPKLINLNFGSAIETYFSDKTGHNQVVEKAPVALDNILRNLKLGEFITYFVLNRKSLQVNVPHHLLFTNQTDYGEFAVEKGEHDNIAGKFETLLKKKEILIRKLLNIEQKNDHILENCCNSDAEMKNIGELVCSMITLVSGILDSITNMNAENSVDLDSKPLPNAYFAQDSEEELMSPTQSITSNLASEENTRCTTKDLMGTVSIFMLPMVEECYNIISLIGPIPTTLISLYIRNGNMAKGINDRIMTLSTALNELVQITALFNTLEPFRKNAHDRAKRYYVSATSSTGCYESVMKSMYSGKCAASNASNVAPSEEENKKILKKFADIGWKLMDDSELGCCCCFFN
# Experiment: PBM E-score (8-mer binding enrichment) (E-score (-0.5 to 0.5)); higher = stronger / more preferred TF binding; most listed sequences are background and not binding sites
# Settings: protein concentration: 200 nM; construct: GST-full length
# Summary of the method: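 PURExpress in vitro transcription/translation supplied GST-tagged yeast transcription factors, either full-length or DNA-binding domain. Applied at about 100-200 nM to universal all-10-mer Agilent arrays double-stranded by primer extension, the bound protein was detected with fluorescent anti-GST. E-scores, modified Wilcoxon-Mann-Whitney statistics, were given by the Universal PBM Analysis Suite to ungapped eight-base words pooled with their reverse complements after masliner normalisation.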
row,Sequence,PBM E-score
1,ATCCAGCG,0.0787
2,AGGGTACT,-0.117
3,CTAGTATA,0.0541
4,CAAGTGGC,0.0512
5,TCTCAAAA,0.143
6,GCCAAGAA,-0.0504
7,CGCGCTTC,-0.0688
8,CGGCTCCC,-0.269
9,ATTCGGGG,0.0149
10,ATAAGCTG,-0.0152
11,CACCTGAC,-0.108
12,ATCGCGCC,0.056
13,GGAGTAAA,0.246
14,AACAGCTT,-0.166
15,GGTTAGGA,-0.155
16,CGGAGCGA,0.146
17,AACCATAT,0.211
18,TATCTCCA,0.159
19,CTATACAC,-0.0765
20,CCTGCCAA,-0.26
21,CTACTTGC,0.0243
22,AGAGGACG,0.114
23,ATGCGTTC,0.165
24,AACTAGCT,-0.0201
25,GAACGGCC,-0.0853

row,Sequence,PBM E-score
1,ATCGGAGA,0.0326
2,AGTGCTAG,0.0412
3,ACGCTTGC,0.00263
4,AAAGACGC,-0.0864
5,ACCCCGAA,0.0331
6,AAGTCCTA,0.0341
7,AAACAGGG,-0.0591
8,ACTACCCC,-0.227
9,ACGATACA,0.0132
10,GTGAACAA,0.124
11,AATCTGTC,-0.124
12,CAGCGGCG,-0.0125
13,CCTATCAA,0.0668
14,CGCAGGAA,0.0111
15,TACTTAAA,0.152
16,TGTAAAAA,0.114
17,AACGCTGA,-0.228
18,CAGGATGA,-0.0551
19,AGTGCACG,-0.0824
20,CGATTGCC,-0.081
21,CGCCGCAA,0.0684
22,CGCTCCTA,-0.101
23,ACTTGACT,-0.0757
24,ATCGCGTC,-0.0472
25,AGGTTTTA,-0.042

row,Sequence,PBM E-score
1,CAATATGC,0.00467
2,CCTAGAAA,0.11
3,AGCAAAAG,-0.0569
4,CTCGATAC,0.215
5,AAGTGTAT,-0.0335
6,AACTCTAT,-0.00078
7,AAATTCGT,0.258
8,CTAGTCTA,-0.166
9,TCCCTGAA,-0.0456
10,AATCTTTA,0.197
11,ACTACTAA,0.173
12,CCCGGTAA,-0.121
13,ACCAGTTG,0.0516
14,AACCAGGA,0.151
15,CCTAGACC,-0.0857
16,CTACCATA,0.115
17,GTGACCAC,-0.2
18,TAGCAAAA,0.233
19,CGTGTAAA,-0.0415
20,AAAAGCTC,0.0811
21,CGCCACGC,-0.403
22,CCTTGGTC,-0.159
23,CTATAGAG,-0.045
24,ACACGCAT,0.0109
25,CACCAAAC,0.0403

row,Sequence,PBM E-score
1,ATGCGCTG,-0.0829
2,ATTACTTG,0.143
3,CCCCCCAA,-0.246
4,GAGGAACA,0.171
5,CCCGTGGA,-0.113
6,GCGCCTAC,-0.105
7,CTGTGACC,-0.194
8,CCGCCGTA,-0.0482
9,GGGTGGGA,-0.0877
10,CTGGATCC,0.0768
11,AGAAGGCG,-0.177
12,GAACTCTC,-0.0358
13,AATACGGT,-0.0205
14,GATCCTTA,0.122
15,CAAGATTC,0.157
16,CTGCTTGA,-0.0898
17,ACGCTTGG,-0.217
18,ATATATGC,0.0357
19,AGATAGAC,0.00447
20,GAATCAGA,0.187
21,AGCTAACT,0.0358
22,ACAGTATC,0.034
23,GCTATGGA,-0.06
24,AGGGAACT,0.0105
25,GACGGACC,-0.0665

row,Sequence,PBM E-score
1,ATGAATAA,0.15
2,CGCGCATC,-0.0296
3,ACGCAGAT,-0.0738
4,CTCCTTCC,-0.244
5,ATCTGGGA,-0.212
6,CAAGGGCG,-0.226
7,AATGATTG,0.092
8,AGGTTCGA,0.073
9,ACAAAGCC,0.0507
10,TAAACACA,0.141
11,ATGTCAAC,0.134
12,AGGATCCG,-0.284
13,AGTCGGAA,0.194
14,TCCAGCAA,0.125
15,GGGTGACA,-0.141
16,AGCAGAAT,0.0992
17,CGGTTTAG,-0.141
18,AATGGTGG,0.00708
19,ACTGTCGG,-0.278
20,AATGAAAA,0.134
21,ATCACGTC,-0.0343
22,AGACTGTA,-0.175
23,AGGTTATC,0.0654
24,CCGTCCAC,0.0972
25,TCCTGAAA,0.0753

row,Sequence,PBM E-score
1,GTGGCGCA,-0.102
2,CTACGATA,0.115
3,CCTATTCC,-0.0179
4,GCTCTAAA,-0.0694
5,ATAAAAGA,0.132
6,GCGTCGGA,0.0107
7,AGATCGGG,-0.245
8,AATGGGCA,-0.0312
9,CAACTATC,0.0163
10,GCCACAGA,-0.22
11,CGAAACCG,0.0838
12,AAAAATGA,0.233
13,CAACAAGG,0.121
14,CTGTGCAC,-0.179
15,GCCGTTAC,-0.138
16,ATAAGGAG,-0.0849
17,CTCCTGTC,-0.0458
18,GGTGGCAC,-0.246
19,CTCCATCA,0.158
20,CCACCCAA,-0.0606
21,GACGATGC,-0.147
22,AATAACGG,0.211
23,TCGCGAGA,-0.055
24,AGCTACGG,-0.217
25,AGTCAAGC,-0.128

row,Sequence,PBM E-score
1,ACGCGCCA,-0.0813
2,CGATGGTA,-0.0391
3,ATTTTTAA,0.279
4,CAAAGGAC,-0.202
5,GCAACACC,-0.139
6,GGCGATAC,-0.177
7,TCGCAAAA,0.211
8,TCGCTCAA,0.177
9,CTGGGATA,0.0448
10,AATGATGA,0.153
11,TCGTTTAA,0.145
12,AGAATTTA,0.243
13,TCGCGACA,-0.0652
14,AAGCATGA,0.0674
15,CTTACCGA,0.0655
16,CCAGGGGA,-0.105
17,ATTGAGGA,0.111
18,AAGGGTGG,-0.257
19,AGCCACCA,0.0237
20,ATATATAG,0.332
21,TCTAATAA,0.291
22,ACGTATGC,-0.0461
23,AGCAACGA,-0.0221
24,ACCCTGAA,-0.0588
25,GTTCGCTA,0.0323

row,Sequence,PBM E-score
1,ATTCATGC,0.0624
2,GAGCAGGA,-0.042
3,GGGGCACA,-0.252
4,GGCAAGAA,0.0465
5,GATACGCA,0.0396
6,GTTCTTTA,0.167
7,ACACAGTG,-0.00934
8,TAAGAACA,0.222
9,GATCAACC,-0.059
10,AAAGCCTG,-0.0529
11,GCGTTGCA,0.00846
12,TAGGCCTA,0.00714
13,GCCTCGAA,0.108
14,ATAGGGAC,-0.0682
15,ACTCTGGA,0.145
16,CTGAATTC,-0.0454
17,CCTAGAAG,-0.16
18,ATGTTCCA,0.332
19,AGGCTTCA,-0.0768
20,ACTGGAGG,0.0259
21,AGATAGTG,0.154
22,GCCGCGCC,-0.232
23,GCTACCAA,-0.121
24,CCAGTCTC,-0.222
25,GCCAAGCC,-0.173

row,Sequence,PBM E-score
1,CCACCACG,-0.0966
2,AACCTCAC,-0.05
3,ATATCATC,0.0901
4,CTAAACCA,0.0356
5,AATGTGAA,0.313
6,ACGGATTA,0.233
7,TCGTACCA,0.159
8,ACTGCGCT,0.0162
9,CATGTCTC,0.00262
10,CAAGGTAC,0.022
11,CGTCTGAG,-0.0855
12,CGATAAGA,0.0559
13,ATAATTGC,0.255
14,CAACGTAA,0.0512
15,AGAGTTGG,0.0237
16,GGTGGCAA,-0.0214
17,ATACGTAC,-0.0727
18,AAGAAGTG,0.145
19,ATTACAGA,0.141
